Inconclusive results, whose numbers are uncertain, are shown with a selection of clear calls. For part of these data: Where the call is inconclusive, the potency comes from a doubtful curve fit. The source made the active and inactive calls. Unless noted, calls follow the shape of the dose curve; as a rule, active = well fitted curve in the direction sought with a large enough effect; inconclusive = small, poorly fitted or top-dose-only effect, or another doubt; inactive = no such curve, though single readings can be large; an effect the other way counts as inactive or inconclusive.
Tests used:
HaCat = test: Cytotoxic Profiling of Annotated Libraries Using Quantitative High-Throughput Screening (AID 1296008); conditions: Five cell lines viability, CellTiter-Glo ATP luminescence, 48-72 h; max response: hits give low values; also: nearly all actives have a fitted effect of over 60% in size; also: potency is read from the fitted curve at half-maximal effect; as to max response: % is scaled to controls: 0 for no effect and ±100 for the full control effect
Method in brief: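 Cells exposed to compounds for 48 or 72 hr at 37 degrees Celsius. Viability read as ATP-coupled luminescence with CellTiter-Glo after 10 min at room temperature.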

C33A = test: Primary qHTS to identify gynecologic anti-cancer compounds using libraries of approved drugs and bioactive compounds (AID 1345084); conditions: Gynecologic cancer cell panel viability, ATPlite luminescence, 48 h; series mostly up to 57.5 µM; also: nearly all actives have a fitted effect of over 55% in size; also: potency is read from the fitted curve at half-maximal effect; as to activity change, negative = cytotoxicity: % is scaled to controls: 0 for no effect and ±100 for the full control effect
Method in brief: (§1)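 In this quantitative HTS, cell killing is estimated from loss of ATP-dependent luciferase light. Cells see five compound concentrations over a 48 h exposure.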

CAOV3 = test: as above; conditions: Gynecologic cancer cell panel viability, ATPlite luminescence, 48 h; series mostly up to 57.5 µM
Method in brief: as §1

SKOV3 = test: as above; conditions: Gynecologic cancer cell panel viability, ATPlite luminescence, 48 h; series mostly up to 57.5 µM
Method in brief: as §1

CASKI = test: as above; conditions: Gynecologic cancer cell panel viability, ATPlite luminescence, 48 h; series mostly up to 57.5 µM
Method in brief: as §1

HeLa = test: as above; conditions: Gynecologic cancer cell panel viability, ATPlite luminescence, 48 h; series mostly up to 57.5 µM
Method in brief: as §1

Hek293T = test: as above; conditions: Gynecologic cancer cell panel viability, ATPlite luminescence, 48 h, control line for the selectivity index; series mostly up to 57.5 µM
Method in brief: as §1

JEG-3 = test: as above; conditions: Gynecologic cancer cell panel viability, ATPlite luminescence, 48 h; series mostly up to 57.5 µM
Method in brief: as §1

OV90 = test: as above; conditions: Gynecologic cancer cell panel viability, ATPlite luminescence, 48 h; series mostly up to 57.5 µM
Method in brief: as §1

PA-1 = test: as above; conditions: Gynecologic cancer cell panel viability, ATPlite luminescence, 48 h; series mostly up to 57.5 µM
Method in brief: as §1

Tov-21-G = test: as above; conditions: Gynecologic cancer cell panel viability, ATPlite luminescence, 48 h; series mostly up to 57.5 µM
Method in brief: as §1

Tov112D = test: as above; conditions: Gynecologic cancer cell panel viability, ATPlite luminescence, 48 h; series mostly up to 57.5 µM
Method in brief: as §1

[1] = test system: Zika virus NS2B-NS3 protease (unlinked complex); test: Primary screen GU Rhodamine qHTS for Zika virus inhibitors: Unlinked NS2B-NS3 protease assay (AID 1347159); conditions: Recombinant ZIKV NS2B-NS3 protease, Rhodamine110 substrate fluorescence; activity change, negative = inhibition: at 107 µM (top of the series); also: nearly all actives have a fitted effect of over 60% in size; also: potency is read from the fitted curve at half-maximal effect
Method in brief: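 Noncovalent NS2B hydrophilic domain/NS3 protease complex (25 nM final) in 10 mM Tris-HCl pH 8.0, 0.01% Tween 20, preincubated 15 min with compounds (up to 114 microM), then 1.5 microM Rhodamine110 substrate. Fluorescence change over 15 min fitted to 4-parameter Hill.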

[2] = test system: Zika virus NS2B-NS3 protease (linked construct); test: Primary screen NINDS Rhodamine qHTS for Zika virus inhibitors (AID 1347160); also: % is scaled to controls: 0 for no effect and ±100 for the full control effect; nearly all actives have a fitted effect of over 55% in size
Method in brief: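 Purified NS2B-NS3 protease with the NS2B hydrophilic domain joined by a flexible linker (25 nM) in 10 mM Tris-HCl pH 8.0, 0.01% Tween 20, preincubated 15 min at RT with compound; Rhodamine110 peptide substrate 1.5 µM; fluorescence change over 15 min; 4-parameter Hill fit.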

[3] = target: Cytochrome P450 2D6 (Homo sapiens) (UniProt P10635); test: Cytochrome P450 family 2 subfamily D member 6 (CYP2D6) small molecule antagonists: luciferase biochemical (cell-free) qHTS assay (AID 1645840; active = well fitted curve in the direction sought with a large enough effect in the repeat runs; inconclusive = weak or mixed curves; inactive = no such curve, though single readings can be large; an effect the other way counts as inactive or inconclusive; also: nearly all actives have a fitted effect of over 55% in size; also: potency is read from the fitted curve at half-maximal effect)
UniProt P10635, sequence (P10635 whole entry, looked up): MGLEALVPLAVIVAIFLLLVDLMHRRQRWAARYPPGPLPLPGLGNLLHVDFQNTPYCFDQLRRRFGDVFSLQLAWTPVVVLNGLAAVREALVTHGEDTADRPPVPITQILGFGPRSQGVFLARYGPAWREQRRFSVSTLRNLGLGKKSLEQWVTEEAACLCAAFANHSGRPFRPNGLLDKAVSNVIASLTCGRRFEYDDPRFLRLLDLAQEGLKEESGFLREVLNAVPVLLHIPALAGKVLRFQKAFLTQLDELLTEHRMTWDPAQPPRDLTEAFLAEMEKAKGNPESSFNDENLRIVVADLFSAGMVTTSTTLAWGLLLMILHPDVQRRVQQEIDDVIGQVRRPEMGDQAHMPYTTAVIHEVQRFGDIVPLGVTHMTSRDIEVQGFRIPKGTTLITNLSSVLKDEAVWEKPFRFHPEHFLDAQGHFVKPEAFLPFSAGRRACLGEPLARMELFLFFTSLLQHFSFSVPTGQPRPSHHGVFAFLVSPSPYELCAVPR
Method in brief: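 P450-Glo luminescent screen: recombinant CYP2D6 enzyme–proluciferin substrate mix preincubated with compound 10 min at room temperature, then NADPH regeneration added for 1 h at room temperature. Detection reagent added for 20 min; luciferin light read as relative luminescence units.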

Es-2 = test: Primary qHTS to identify gynecologic anti-cancer compounds using libraries of approved drugs and bioactive compounds (AID 1345084); conditions: Gynecologic cancer cell panel viability, ATPlite luminescence, 48 h; series mostly up to 57.5 µM; also: nearly all actives have a fitted effect of over 55% in size; also: potency is read from the fitted curve at half-maximal effect; as to activity change, negative = cytotoxicity: % is scaled to controls: 0 for no effect and ±100 for the full control effect
Method in brief: as §1

[4] = P-glycoprotein substrates identified in KB-8-5-11 adenocarcinoma cell line, qHTS therapeutic library screen (AID 1346987); conditions: activity change, negative = cytotoxicity: at 44.5 µM (top of the series); also: nearly all actives have a fitted effect of over 65% in size; also: potency is read from the fitted curve at half-maximal effect; as to activity change, negative = cytotoxicity: % is scaled to controls: 0 for no effect and ±100 for the full control effect
Method in brief: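 Steps: plate 500 KB-8-5-11 cells/well in DMEM + 10% FCS (colchicine removed); pin compounds in dose-response; incubate 72 h, 37 degree C, 5% CO2; add CellTiter-Glo, 5 min; read luminescence.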

[5] = Primary qHTS for inhibitors of nuclear receptor binding SET domain protein 2 (NSD2) in an isogenic RCH-ACV NSD2 p.E1099K mutant (9B) (AID 1645876); conditions: activity change, negative = viability loss: at 44.9 µM (top of the series) unless noted; also: nearly all actives have a fitted effect of over 70% in size; also: potency is read from the fitted curve at half-maximal effect
[6] = Primary qHTS for inhibitors of nuclear receptor binding SET domain protein 2 (NSD2) in an RCH-ACV wild type WT cells (2C) (AID 1645877); conditions: activity change, negative = cell killing: at 44.9 µM (top of the series) unless noted; also: nearly all actives have a fitted effect of over 70% in size; also: potency is read from the fitted curve at half-maximal effect
[7] = Primary fluorescence-based thiol-reactive (MSTI) qHTS assay for identification of artifact compounds. (AID 1845221);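 also: potency is read from the fitted curve at half-maximal effect; thiol-reactive compounds lower the probe fluorescence signal; nearly all actives have a fitted effect of over 65% in size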
Method in brief: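 One-hour, room-temperature, dark incubation of compound with 4 uM MSTI in PBS (pH 7.4, 2% DMSO) precedes a fluorescence read at 525 nm excitation, 598 nm emission; Hill-equation fitting yields concentration-response values.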
Tags tell the direction and shape of the fitted curve.

C/C=C(\C)C(=O)OCC1OC(OC2OC(COC(=O)/C(C)=C/C)C(OC3OC(CO)C(OC(=O)/C(C)=C/C)C(OC(=O)/C(C)=C/C)C3O)C(O)C2O)C(O)C(O)C1OC1OC(CO)C(OC(=O)/C(C)=C/C)C(OC(=O)/C(C)=C/C)C1O (stereo not given)
inactive: activity change, negative = cytotoxicity (C33A) -2.64% [at 11.6 µM] | activity change, negative = cytotoxicity (CAOV3) -7.6% [at 11.6 µM] | activity change, negative = cytotoxicity (SKOV3) -11.6% [at 11.6 µM]
inconclusive: max response (HaCat) -35.3% [inhibitor]

CCCCN(CCN(CCCC)C(=O)N1CCOCC1)C(=O)N1CCOCC1
inactive: outcome (HaCat)
inconclusive: Potency (SKOV3) 3.16 µM [cytotoxic, single point]

Nc1ccc2c(c1)CN1C(=O)c3ccccc3C1=N2
active: Potency (CASKI) 6.31 µM | Potency (JEG-3) 11.2 µM | Potency (SKOV3) 7.94 µM | Potency (Tov-21-G) 10 µM
inconclusive: Potency (HaCat) 14.6 µM [inhibitor, single point] | Potency (C33A) 8.91 µM [cytotoxic, partial curve] | Potency (CAOV3) 10 µM [cytotoxic, single point] | Potency (HeLa) 10 µM [cytotoxic, single point] | Potency (Hek293T) 10 µM [cytotoxic, single point] | Potency (OV90) 10 µM [cytotoxic, single point] | Potency (PA-1) 4.47 µM [cytotoxic, partial curve, poor fit] | Potency (Tov112D) 20 µM [cytotoxic, single point]

CN(C)C/C=C/C(=O)Nc1cccc(C(=O)Nc2ccc(Nc3nccc(-c4cccnc4)n3)cc2)c1
inconclusive: Potency [3] 15.1 µM [inhibitor, partial curve] | Potency (HaCat) 29.1 µM [inhibitor, single point] | Potency (CAOV3) 25.1 µM [cytotoxic, partial curve] | Potency (Es-2) 31.6 µM [cytotoxic, single point] | Potency (Hek293T) 22.4 µM [cytotoxic, single point] | Potency (JEG-3) 28.2 µM [cytotoxic, single point] | Potency (PA-1) 39.8 µM [cytotoxic, single point] | Potency (SKOV3) 7.08 µM [cytotoxic, single point] | Potency (Tov-21-G) 39.8 µM [rising, single point]
active: Potency [1] 79.4 µM | Potency (C33A) 12.6 µM | Potency (CASKI) 7.08 µM | Potency (OV90) 10 µM | Potency (Tov112D) 10 µM
inactive: Potency [2]

Cn1ncc(Cl)c1-c1cc(C(=O)N[C@H](CN)Cc2cccc(F)c2)sc1Cl
inconclusive: Potency (HaCat) 29.1 µM [inhibitor, single point] | Potency (CASKI) 22.4 µM [cytotoxic, partial curve, poor fit] | Potency (Es-2) 35.5 µM [cytotoxic, single point] | Potency (HeLa) 31.6 µM [cytotoxic, single point] | Potency (JEG-3) 31.6 µM [cytotoxic, partial curve, poor fit] | Potency (OV90) 15.8 µM [cytotoxic, partial curve, poor fit] | Potency (Tov112D) 28.2 µM [cytotoxic, single point]
active: Potency [4] 18.4 µM | Potency [3] 2.68 µM | Potency (C33A) 11.2 µM | Potency (Hek293T) 2.82 µM | Potency (PA-1) 25.1 µM | Potency (SKOV3) 14.1 µM | Potency (Tov-21-G) 1.58 µM

C[N+](C)(C)CCOC(N)=O
inactive: Potency [4] | Potency [3]
inconclusive: Potency [5] 21.1 µM [inhibitor, single point] | Potency [6] 21.1 µM [inhibitor, single point] | Potency (HaCat) 26.6 µM [inhibitor, single point] | Potency (CAOV3) 39.8 µM [cytotoxic, single point]

COc1cc(N)c(Cl)cc1C(=O)NC1CCN(Cc2ccccc2)CC1
inconclusive: Potency [4] 3.93 µM [inhibitor, partial curve] | Potency [5] 29.9 µM [inhibitor, single point] | Potency [6] 29.9 µM [inhibitor, single point] | Potency (Hek293T) 1.26 µM [rising, full curve] | Potency (OV90) 14.1 µM [cytotoxic, partial curve]
active: Potency [3] 0.0219 µM
inactive: max response (HaCat) 1.83% | Potency (SKOV3)

COc1cc(-n2cnc3cc(-c4ccc(Cl)cc4)sc3c2=O)ccc1OCCN1CCCC1
inconclusive: Potency [4] 20.6 µM [inhibitor, single point] | Potency [1] 79.4 µM [inhibitor, partial curve, poor fit] | Potency [3] 15.1 µM [inhibitor, partial curve] | Potency (HaCat) 29.1 µM [inhibitor, single point] | Potency (C33A) 28.2 µM [cytotoxic, single point] | Potency (CAOV3) 17.8 µM [cytotoxic, partial curve, poor fit] | Potency (CASKI) 28.2 µM [cytotoxic, single point] | Potency (Es-2) 35.5 µM [cytotoxic, partial curve, poor fit] | Potency (Hek293T) 35.5 µM [cytotoxic, single point] | Potency (OV90) 25.1 µM [cytotoxic, single point] | Potency (SKOV3) 25.1 µM [cytotoxic, single point] | Potency (Tov112D) 39.8 µM [cytotoxic, single point]
active: Potency [5] 7.28 µM | Potency [6] 5.78 µM | Potency (PA-1) 22.4 µM

CC(=O)[C@@]1(O)CC[C@H]2[C@@H]3C[C@H](C)C4=CC(=O)C=C[C@]4(C)[C@@]3(F)[C@@H](O)C[C@@]21C
inactive: Potency [4] | max response (HaCat) 4.35% | Potency (JEG-3) | Potency (PA-1)
inconclusive: Potency (SKOV3) 8.91 µM [cytotoxic, single point]

CC(COc1ccccc1)NC(C)C(O)c1ccc(O)cc1 (stereo not given)
inactive: max response (HaCat) -5.97% | Potency (CAOV3)

NC(=Nc1ccc(CCNCc2cccc(Cl)c2)cc1)c1cccs1
inconclusive: Potency (HaCat) 29.1 µM [inhibitor, single point] | Potency (C33A) 7.94 µM [cytotoxic, partial curve, poor fit] | Potency (CAOV3) 39.8 µM [cytotoxic, single point] | Potency (CASKI) 10 µM [cytotoxic, partial curve, poor fit] | Potency (JEG-3) 35.5 µM [cytotoxic, single point] | Potency (OV90) 10 µM [cytotoxic, partial curve, poor fit] | Potency (SKOV3) 35.5 µM [cytotoxic, single point]
active: Potency [6] 11.5 µM
inactive: Potency [1] | Potency (HeLa)

COc1cc(C)nc(-n2nc(C)cc2OC)n1
inconclusive: Potency (HaCat) 5.96 µM [inhibitor, partial curve, poor fit] | Potency (SKOV3) 39.8 µM [rising, single point]
inactive: Potency (OV90) | Potency (PA-1)

CN1[C@@H]2CC[C@H]1CC(NC(=O)n1c(=O)[nH]c3ccccc31)C2 (stereo not given in full)
inactive: Potency [6]
inconclusive: Potency (HaCat) 4.61 µM [inhibitor, full curve] | Potency (OV90) 31.6 µM [rising, partial curve, poor fit]

CC(O)CN(CCN(CC(C)O)CC(C)O)CC(C)O (stereo not given)
inactive: outcome (HaCat) | Potency (PA-1) | Potency (Tov-21-G)

O=S(=O)(Nc1ccccn1)c1ccc(N=Cc2c(O)[nH]c3ccc4ncsc4c23)cc1
inconclusive: Potency [1] 10 µM [inhibitor, partial curve] | Potency [5] 3.74 µM [inhibitor, single point] | Potency [6] 3.33 µM [inhibitor, single point] | Potency [7] 5.45 µM [inhibitor, partial curve] | Potency (HaCat) 1.19 µM [inhibitor, partial curve, poor fit] | Potency (C33A) 2.51 µM [rising, partial curve, poor fit] | Potency (CAOV3) 1.26 µM [rising, partial curve, poor fit] | Potency (HeLa) 4.47 µM [rising, single point] | Potency (SKOV3) 2.24 µM [rising, partial curve, poor fit] | Potency (Tov112D) 0.199 µM [rising, partial curve, poor fit]
inactive: activity change, negative = cytotoxicity (Es-2) -0.0602% [at 11.6 µM]

CC(C)C[C@@H](N)C(=O)O
inactive: max response (HaCat) 4.82% | Potency (Tov-21-G)

Cc1ccc(O)cc1
inconclusive: Potency (SKOV3) 28.2 µM [rising, single point]
inactive: Potency [5] | Potency [6] | outcome (HaCat)

Nc1ccc(S(=O)(=O)NCc2ccccc2)cc1
inactive: Potency (Hek293T)
inconclusive: Potency (HaCat) 6.68 µM [inhibitor, full curve] | Potency (SKOV3) 1.41 µM [cytotoxic, full curve, poor fit]

O=C(c1ccc(F)c(F)c1Nc1ccc(I)cc1F)N1CC(O)(C2CCCCN2)C1 (stereo not given)
active: Potency [4] 18.4 µM | Potency [5] 20.5 µM | Potency (HaCat) 23.1 µM | Potency (C33A) 35.5 µM | Potency (SKOV3) 20 µM
inconclusive: Potency (CAOV3) 39.8 µM [cytotoxic, single point] | Potency (Es-2) 17.8 µM [cytotoxic, partial curve, poor fit] | Potency (HeLa) 35.5 µM [cytotoxic, partial curve, poor fit] | Potency (OV90) 44.7 µM [cytotoxic, partial curve, poor fit] | Potency (PA-1) 25.1 µM [cytotoxic, partial curve, poor fit] | Potency (Tov-21-G) 15.8 µM [cytotoxic, partial curve, poor fit] | Potency (Tov112D) 14.1 µM [cytotoxic, partial curve, poor fit]

— PubChem BioAssay (NCATS)
